Screen size: about 310,000 compounds; about 2,200 (0.71%) showed an effect of 50% or more. Effects have a minus sign here. This is one part of the list.
The molecules below were run against human ether-à-go-go-related gene (hERG) potassium channel (human, UniProt Q12809) (assay: primary screen, population patch clamp on CHO cells stably expressing hERG).
Chain of human ether-à-go-go-related gene (hERG) potassium channel (Q12809 whole entry, looked up): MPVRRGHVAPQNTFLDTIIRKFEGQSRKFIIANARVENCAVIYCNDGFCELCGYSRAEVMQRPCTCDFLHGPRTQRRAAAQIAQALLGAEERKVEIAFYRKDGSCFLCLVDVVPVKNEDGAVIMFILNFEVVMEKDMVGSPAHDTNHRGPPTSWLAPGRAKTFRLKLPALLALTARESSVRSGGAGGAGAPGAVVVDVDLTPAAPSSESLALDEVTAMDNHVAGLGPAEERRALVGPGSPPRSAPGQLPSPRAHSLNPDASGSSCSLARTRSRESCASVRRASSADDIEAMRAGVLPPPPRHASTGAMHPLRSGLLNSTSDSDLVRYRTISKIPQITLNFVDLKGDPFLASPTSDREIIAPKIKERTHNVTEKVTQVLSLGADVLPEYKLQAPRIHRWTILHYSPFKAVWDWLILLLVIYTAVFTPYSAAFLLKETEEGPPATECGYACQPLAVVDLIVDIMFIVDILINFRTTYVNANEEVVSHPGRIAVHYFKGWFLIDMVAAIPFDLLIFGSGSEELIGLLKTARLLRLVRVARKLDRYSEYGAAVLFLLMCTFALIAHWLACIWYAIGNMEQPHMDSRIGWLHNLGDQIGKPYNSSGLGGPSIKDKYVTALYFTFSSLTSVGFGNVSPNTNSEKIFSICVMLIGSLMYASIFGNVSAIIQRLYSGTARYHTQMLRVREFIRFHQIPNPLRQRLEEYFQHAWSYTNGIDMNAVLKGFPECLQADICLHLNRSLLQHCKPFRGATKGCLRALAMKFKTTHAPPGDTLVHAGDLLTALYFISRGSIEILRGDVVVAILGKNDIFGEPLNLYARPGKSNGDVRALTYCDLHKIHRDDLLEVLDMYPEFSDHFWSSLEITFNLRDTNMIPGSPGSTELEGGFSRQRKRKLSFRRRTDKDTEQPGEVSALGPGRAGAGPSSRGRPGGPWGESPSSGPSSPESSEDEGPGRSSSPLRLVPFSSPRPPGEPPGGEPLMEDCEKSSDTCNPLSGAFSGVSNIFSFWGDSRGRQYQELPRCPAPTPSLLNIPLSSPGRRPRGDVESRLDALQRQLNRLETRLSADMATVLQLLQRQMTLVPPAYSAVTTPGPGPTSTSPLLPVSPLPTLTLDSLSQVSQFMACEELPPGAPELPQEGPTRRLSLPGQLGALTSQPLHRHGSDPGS

Compared with `COc1cc(C(=O)NCC(c2ccc(F)cc2)N2CCOCC2)ccc1OCc1ccccc1Cl` (stereo not shown), `COCCCNC(=O)c1ccc(Cn2c(=O)c3ccccc3n(CC(=O)NCCc3ccc(OC)c(OC)c3)c2=O)cc1` is higher in “hERG current change (%, negative = inhibition) at 1uM” value: 3.04% for the first, 8.89% for the second.

Compared with `Cc1cc(=O)oc2c(C)c(OCC(=O)N3CCC(C(=O)O)(c4ccccc4)CC3)ccc12`, `NC(=O)NC(=O)COC(=O)c1ccc2noc(-c3ccccc3)c2c1` is lower in “hERG current change (%, negative = inhibition) at 1uM” value: 16.6% for the first, 14.7% for the second.

Compared with `CCc1nc(N2CCC3(CC2)OCCO3)c2nnn(Cc3ccccc3Cl)c2n1`, `COC(=O)c1ccc(NC(=O)CCc2nnc3ccc(N4CCC5(CC4)OCCO5)nn23)cc1` is lower in “hERG current change (%, negative = inhibition) at 1uM” value: 20.9% for the first, 11.1% for the second.

First: O=C(CN1CCN(C(=O)C2COc3ccccc3O2)CC1)Nc1ccc(F)cc1 (stereo not shown)
Second: COc1ccc(NC(=O)C2Cc3ccccc3C(=O)O2)cc1 (stereo not shown)
The “hERG current change (%, negative = inhibition) at 1uM” value of the first is lower: -63.5% for the first, 8.38% for the second.

First: CC1CCN(C(=O)Cn2cc(C#N)c3ccccc32)CC1
Second: CN(C)CC1CCCCC1OC(=O)c1ccc(S(=O)(=O)N(C)c2ccccc2)cc1 (stereo not shown)
The “hERG current change (%, negative = inhibition) at 1uM” value of the first is higher: 15.1% for the first, 13.7% for the second.

First: O=C(Nc1ccc(F)cc1)c1cn(-c2ccccc2)nc1-c1ccncc1
Second: c1cncc(-c2nc3c(ccc4ccccc43)[nH]2)c1
The “hERG current change (%, negative = inhibition) at 1uM” value of the first is lower: -25.6% for the first, 12.8% for the second.

Compared with `COC(=O)C1C(O)=C(C=Nc2ccc(N)cc2)C(=O)CC1(C)C` (stereo not shown), `CCSc1ccccc1C(=O)Nc1ccc([N+](=O)[O-])cc1OC` is lower in “hERG current change (%, negative = inhibition) at 1uM” value: 8.86% for the first, -6.29% for the second.

Compared with `CCOC(=O)C1(Cc2ccccc2)CCCN(Cc2cnn(CC)c2)C1` (stereo not shown), `Cl.O=C(NCCCc1ccccc1)[C@@H]1Cc2ccccc2CN1` is higher in “hERG current change (%, negative = inhibition) at 1uM” value: 4.29% for the first, 11.6% for the second.

Going from `COc1ccc(OC)c(NC(=S)NN2CCOCC2)c1` to `O=C(Cc1ccccc1Cl)Nc1cc(S(=O)(=O)N2CCOCC2)ccc1N1CCOCC1`, the “hERG current change (%, negative = inhibition) at 1uM” value falls from 12% to 9.2%.

Compared with `CSCCC(NC(=O)c1c(C)oc2c1CCCC2)C(=O)O` (stereo not shown), `CC(=O)N1c2ccc(S(=O)(=O)NCCC(=O)NC3CCCCCC3)cc2CC1C` (stereo not shown) is lower in “hERG current change (%, negative = inhibition) at 1uM” value: 7.87% for the first, 2.71% for the second.

Going from `CCc1ccc(NC(=O)C2CC(=O)Nc3ncnn32)cc1` (stereo not shown) to `Cc1cc(C)nc(NS(=O)(=O)c2ccc(NC(=S)NC(=O)C(C)C)cc2)n1`, the “hERG current change (%, negative = inhibition) at 1uM” value falls from 15.2% to 2.48%.

Compared with `OC(COc1ccc(CNCc2cccnc2)cc1)CN1CCc2ccccc2C1` (stereo not shown), `COc1ccc(CNCCC(c2ccccc2)C2CCOC(C)(C)C2)cc1` (stereo not shown) is lower in “hERG current change (%, negative = inhibition) at 1uM” value: -0.851% for the first, -12.5% for the second.

First: Cc1nc2ccccn2c1C(=O)N/N=C/c1cc(C)n(-c2ccc(Br)cc2)c1C
Second: C=CCc1cccc(/C=N/NC(=O)CNc2cccc3ccccc23)c1O
The “hERG current change (%, negative = inhibition) at 1uM” value of the first is higher: 16.7% for the first, -0.772% for the second.

First: CNC(=S)NNC(=O)c1sc2cc(C(F)(F)F)cnc2c1-c1cccnc1
Second: CN(C)c1ccc(C(=O)NNC(=O)Nc2ccccc2)cc1
The “hERG current change (%, negative = inhibition) at 1uM” value of the first is lower: 13% for the first, 14.3% for the second.

First: Cc1c(Cl)cccc1N1C(=O)C2ON(c3ccccc3)C(c3cccnc3)C2C1=O (stereo not shown)
Second: O=C(CCSc1ccccc1)OCn1nnc2ccccc2c1=O
The “hERG current change (%, negative = inhibition) at 1uM” value of the first is lower: 10.6% for the first, 13.7% for the second.

Going from `O=C(c1ccco1)N1CCN=C1SCc1cccc(Cl)c1` to `Cc1cc(C)n(-c2ccc(C(=O)OCC(=O)NCc3ccco3)cc2)n1`, the “hERG current change (%, negative = inhibition) at 1uM” value falls from 16.6% to 7.84%.

Going from `Cc1nc2scc(C)n2c(=O)c1S(=O)(=O)NCCc1ccccc1` to `O=C(CNS(=O)(=O)c1cccs1)NCc1ccccc1`, the “hERG current change (%, negative = inhibition) at 1uM” value falls from 19.4% to 10.6%.

Compared with `CCOC(=O)N1CCN(C(=O)C(=O)NNC(=O)COc2ccc(Cl)cc2)CC1`, `CCOc1ccc(NC(=O)CN(C)CC(=O)Nc2ccc(F)c(F)c2F)cc1OCC` is lower in “hERG current change (%, negative = inhibition) at 1uM” value: 14.3% for the first, 8.28% for the second.

First: O=C(N1CCN(c2ccccc2)CC1)C12CC3CC(CC(C3)C1)C2
Second: O=C(c1ccc(-n2cncn2)c([N+](=O)[O-])c1)N1CCN(S(=O)(=O)c2ccccc2Br)CC1
The “hERG current change (%, negative = inhibition) at 1uM” value of the first is higher: -21.3% for the first, -21.8% for the second.

Compared with `NC(=S)N=Nc1c(O)n(CCCl)c2ccc(Cl)cc12`, `CCCCC(=O)OCc1nc(N)nc(Nc2ccccc2C)n1` is higher in “hERG current change (%, negative = inhibition) at 1uM” value: 5.67% for the first, 10.1% for the second.

Going from `Cc1ccc(S(=O)(=O)N2CCN(Cc3csc(C)n3)CC2)cc1` to `CCO[C@H]1OC(C(=O)NC2CC2)=C[C@@H](C2CC2)[C@@H]1CCCO`, the “hERG current change (%, negative = inhibition) at 1uM” value falls from 12.1% to 11.4%.

With `O=C(NC1CC1)C1C2C3C4CC5C3C5C4C12` (stereo not shown) the “hERG current change (%, negative = inhibition) at 1uM” value was 3.16%.

From article PMC4336329 (PLoS ONE, 2015)
